Consider two molecules from US20260274913A1 (Amgen, published 2026).

Common to all, as to experiment: SPR (Biacore T200), 1:1 binding model
In general terms: SPR reads the build-up and loss of mass on a sensor chip optically.

One assay concerns the target T1, cyTREM1 ECD (cynomolgus monkey, UniProt A0A2K5VHG8 21-204).
T1 construct: extracellular domain; also called cynoTREM1; cyno TREM1
T1 sequence: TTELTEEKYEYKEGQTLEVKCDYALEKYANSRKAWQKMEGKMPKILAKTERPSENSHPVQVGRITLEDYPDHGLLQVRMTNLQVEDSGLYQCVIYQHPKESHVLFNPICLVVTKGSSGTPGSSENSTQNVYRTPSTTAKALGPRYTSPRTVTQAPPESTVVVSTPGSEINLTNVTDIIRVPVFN

Assay [1] deals with T2, huIL10R alpha protein #9100 (human, UniProt Q13651 22-235).
T2 construct: also called huIL10R 9100; version 9100
T2 sequence (looked up): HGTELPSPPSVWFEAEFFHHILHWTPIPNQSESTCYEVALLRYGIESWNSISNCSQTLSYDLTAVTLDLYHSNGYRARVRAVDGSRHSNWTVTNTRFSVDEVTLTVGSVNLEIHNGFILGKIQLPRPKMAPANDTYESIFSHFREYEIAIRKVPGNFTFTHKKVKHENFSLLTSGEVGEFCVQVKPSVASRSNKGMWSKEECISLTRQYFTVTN

In assay [2] the target is T3, huIL10R alpha protein #274 (human, UniProt Q13651 22-235).
T3 sequence (looked up): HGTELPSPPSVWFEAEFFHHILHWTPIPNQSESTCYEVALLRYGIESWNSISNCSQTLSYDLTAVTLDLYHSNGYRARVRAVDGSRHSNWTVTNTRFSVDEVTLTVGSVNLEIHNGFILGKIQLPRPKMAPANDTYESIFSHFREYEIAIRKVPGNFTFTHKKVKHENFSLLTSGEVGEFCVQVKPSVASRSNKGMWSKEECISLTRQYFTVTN

B1: anti-huTREM1 61B12 G4S huIL10M1 Q38E IgG-protein (other)
heavy: QVQLVQSGAEVTKPGASVKVSCKASGYTFTRYDINWVRQATGQGLEWMGWMNPNSGNSGSVQKFRGRVTMTRDTSITTVYMELSSLRSDDTAVYYCARGGISSSWHWAFDIWGQGTMVTVSSASTKGPSVFPLAPSSKSTSGGTAALGCLVKDYFPEPVTVSWNSGALTSGVHTFPAVLQSSGLYSLSSVVTVPSSSLGTQTYICNVNHKPSNTKVDKKV[human IgG1 Fc with R292C N297G V302C (EU numbers) not given here]GGGGSSPGQGTQSENSCTHFPGNLPNMLRDLRDAFSRVKTFFEMKDQLDNLLLKESLLEDFKGYLGCQALSEMIQFYLEEVMPQAENQDPDIKAHVNSLGENLKTLRLRLRRCHRFLPCENGGGSGGKSKAVEQVKNAFNKLQEKGIYKAMSEFDIFINYIEAYMTMKIRN
light: DIQMTQSPSSLSASVGDRVTITCQASQDINNHLNWYQQKPGKAPKLLIYGAYTLETGVPSRFSGSGSGTDFTFTISSLQPEDIATYYCQQYDKLPLTFGGGTKVEIKRTVAAPSVFIFPPSDEQLKSGTASVVCLLNNFYPREAKVQWKVDNALQSGNSQESVTEQDSKDSTYSLSSTLTLSKADYEKHKVYACEVTHQGLSSPVTKSFNRGEC
notes: Bivalent antibody-cytokine fusion: IgG1z SEFL2 heavy chain (desK), G4S linker, IL-10M1 mutein at the C-terminus
For B1, the Kd (commonly the free concentration of one partner at which half of the binding sites on the other are occupied at equilibrium, for simple one-to-one binding) stood at 1.14 nM in the assay with cyTREM1 ECD, 167 nM in assay [1] and 36.8 nM in assay [2].

B2: anti-huTREM1 61B12 G4S huIL10M1 L46K IgG-protein (other)
heavy: QVQLVQSGAEVTKPGASVKVSCKASGYTFTRYDINWVRQATGQGLEWMGWMNPNSGNSGSVQKFRGRVTMTRDTSITTVYMELSSLRSDDTAVYYCARGGISSSWHWAFDIWGQGTMVTVSSASTKGPSVFPLAPSSKSTSGGTAALGCLVKDYFPEPVTVSWNSGALTSGVHTFPAVLQSSGLYSLSSVVTVPSSSLGTQTYICNVNHKPSNTKVDKKV[human IgG1 Fc with R292C N297G V302C (EU numbers) not given here]GGGGSSPGQGTQSENSCTHFPGNLPNMLRDLRDAFSRVKTFFQMKDQLDNKLLKESLLEDFKGYLGCQALSEMIQFYLEEVMPQAENQDPDIKAHVNSLGENLKTLRLRLRRCHRFLPCENGGGSGGKSKAVEQVKNAFNKLQEKGIYKAMSEFDIFINYIEAYMTMKIRN
light: DIQMTQSPSSLSASVGDRVTITCQASQDINNHLNWYQQKPGKAPKLLIYGAYTLETGVPSRFSGSGSGTDFTFTISSLQPEDIATYYCQQYDKLPLTFGGGTKVEIKRTVAAPSVFIFPPSDEQLKSGTASVVCLLNNFYPREAKVQWKVDNALQSGNSQESVTEQDSKDSTYSLSSTLTLSKADYEKHKVYACEVTHQGLSSPVTKSFNRGEC
notes: as for B1
On to B2, for which the Kd in the assay with cyTREM1 ECD was 1.25 nM; in assay [1], 225 nM; in assay [2] it was 56.3 nM.
